The RNAGym collection of RNA variant scans (doi:10.1073/pnas.2313332121)
This sample is rich in variants without activity.

B1: TPR 5TU (parent)
chain: GGAUCUUCUCGAUCUAACAAAAAAGACAAAUCUGCCACAAAGCUUGAGAGCAUCUUCGGAUGCAGAGGCGGCAGCCUUCGGUGGCGCGAUAGCGCCAACGUUCUCAACUAUGACACGCAAAACGCGUGCUCCGUUGAAUGGAGUUUAUCAUG

Variants of: B1
Test: polymerase ribozyme fitness, log enrichment relative to wild type (log ratio); higher = more active; in vitro selection for triplet polymerase activity
Outline: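 Mutant libraries of each subunit of a heterodimeric triplet polymerase ribozyme were built by PCR and transcribed. Each library went through one round of in vitro selection in triplicate: annealing with biotinylated primer, partner subunit and triplets, frozen incubation at −7 °C, gel excision of extended constructs, streptavidin-bead capture and RT-PCR. Input and output libraries were Illumina-sequenced; only genotypes with ≥10 input reads and ≥1 read per output were kept. Fitness is log2(genotype enrichment/wild-type enrichment), using inverse-variance-weighted replicate averages.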
In the case of A40C G50U U148A, the “polymerase ribozyme fitness (log ratio)” value is reported as no more than -4.2.
For A40C G59A C76G C93G, the “polymerase ribozyme fitness (log ratio)” value was no more than -4.2.
With A40C G62U A119U the “polymerase ribozyme fitness (log ratio)” value was -0.408.
For A40C G67C G68A C72G C87G G94C A107U A115U U139G, the “polymerase ribozyme fitness (log ratio)” value was no more than -4.2.
In the case of A40C G68U G86A C103G, the “polymerase ribozyme fitness (log ratio)” value is reported as no more than -4.2.
For A40C G74U C87A A97C A138C, the “polymerase ribozyme fitness (log ratio)” value was no more than -4.2.
In the case of A40C G80A G83A U145A G152A, the “polymerase ribozyme fitness (log ratio)” value is reported as no more than -4.2.
With A40C G83A A97G the “polymerase ribozyme fitness (log ratio)” value was -1.2.
In the case of A40C G83C, the “polymerase ribozyme fitness (log ratio)” value is reported as 0.449.
With A40C G88C A107U the “polymerase ribozyme fitness (log ratio)” value was no more than -4.2.
For A40C G92A C99U C105A C129U, the “polymerase ribozyme fitness (log ratio)” value was no more than -4.2.
For A40C G92A U109C G141U, the “polymerase ribozyme fitness (log ratio)” value was no more than -4.2.
With A40C G94U C129G U139A G141U U146C the “polymerase ribozyme fitness (log ratio)” value was no more than -4.2.
With A40C G100U U102G U135A the “polymerase ribozyme fitness (log ratio)” value was no more than -4.2.
With A40C G140U the “polymerase ribozyme fitness (log ratio)” value was -3.39.
With A40C G141A the “polymerase ribozyme fitness (log ratio)” value was 0.793.
With A40C U44A U61C the “polymerase ribozyme fitness (log ratio)” value was no more than -4.2.
For A40C U44G C63U C95U C103G A115G A142C, the “polymerase ribozyme fitness (log ratio)” value was no more than -4.2.
In the case of A40C U44G U53A C87G A107U A121U G124C U130A G143A, the “polymerase ribozyme fitness (log ratio)” value is reported as no more than -4.2.
With A40C U53A G88C U139C the “polymerase ribozyme fitness (log ratio)” value was no more than -4.2.
For A40C U55A C79U C118A, the “polymerase ribozyme fitness (log ratio)” value was no more than -4.2.
With A40C U55A G59C C69U G84A the “polymerase ribozyme fitness (log ratio)” value was -2.39.
For A40C U56A C69G A91U A110U G136A U148A, the “polymerase ribozyme fitness (log ratio)” value was no more than -4.2.
For A40C U82C G94U, the “polymerase ribozyme fitness (log ratio)” value was -0.916.
With A40C U134A the “polymerase ribozyme fitness (log ratio)” value was -1.77.
In the case of A40C U135A, the “polymerase ribozyme fitness (log ratio)” value is reported as -0.385.
In the case of A40C U144A, the “polymerase ribozyme fitness (log ratio)” value is reported as -0.312.
For A40G A41C A52C C63A U77A U78C C85G, the “polymerase ribozyme fitness (log ratio)” value was no more than -4.2.
In the case of A40G A41C C43A G83C C87G C96A, the “polymerase ribozyme fitness (log ratio)” value is reported as no more than -4.2.
In the case of A40G A41C G50A G128C, the “polymerase ribozyme fitness (log ratio)” value is reported as no more than -4.2.
With A40G A41G G67C A120C the “polymerase ribozyme fitness (log ratio)” value was no more than -4.2.
With A40G A47G U144G the “polymerase ribozyme fitness (log ratio)” value was -2.26.
In the case of A40G A47U G50C C93G G94A C95G A122C, the “polymerase ribozyme fitness (log ratio)” value is reported as no more than -4.2.
With A40G A49C C85G G92U A121U the “polymerase ribozyme fitness (log ratio)” value was no more than -4.2.
With A40G A49C G59A C75G A91C C149A the “polymerase ribozyme fitness (log ratio)” value was no more than -4.2.
For A40G A60G U61C G84A, the “polymerase ribozyme fitness (log ratio)” value was -3.52.
For A40G A64G G136A, the “polymerase ribozyme fitness (log ratio)” value was no more than -4.2.
With A40G A91C U146C the “polymerase ribozyme fitness (log ratio)” value was no more than -4.2.
In the case of A40G C43U A49U A121U, the “polymerase ribozyme fitness (log ratio)” value is reported as no more than -4.2.
For A40G C57U C79G A150G, the “polymerase ribozyme fitness (log ratio)” value was no more than -4.2.
For A40G C57U C87G A107U G126A, the “polymerase ribozyme fitness (log ratio)” value was no more than -4.2.
For A40G C69G G70U G83A A150U, the “polymerase ribozyme fitness (log ratio)” value was no more than -4.2.
In the case of A40G C75U A89C C95U C99A, the “polymerase ribozyme fitness (log ratio)” value is reported as no more than -4.2.
In the case of A40G C85G G86U G94A U130G A142C, the “polymerase ribozyme fitness (log ratio)” value is reported as no more than -4.2.
In the case of A40G C85U A107C A120U U146C, the “polymerase ribozyme fitness (log ratio)” value is reported as no more than -4.2.
In the case of A40G C103G, the “polymerase ribozyme fitness (log ratio)” value is reported as no more than -4.2.
For A40G C116G A120U, the “polymerase ribozyme fitness (log ratio)” value was -1.72.
In the case of A40G G48A C87U C96A G141U A147G, the “polymerase ribozyme fitness (log ratio)” value is reported as no more than -4.2.
In the case of A40G G48U C57U G84C C87A C114G G124C G133U, the “polymerase ribozyme fitness (log ratio)” value is reported as no more than -4.2.
In the case of A40G G58C C114U C118A U144C, the “polymerase ribozyme fitness (log ratio)” value is reported as no more than -4.2.
In the case of A40G G62A G86U C95U U134C, the “polymerase ribozyme fitness (log ratio)” value is reported as no more than -4.2.
In the case of A40G G68U C76A C93U, the “polymerase ribozyme fitness (log ratio)” value is reported as no more than -4.2.
In the case of A40G G81C C132U A138C, the “polymerase ribozyme fitness (log ratio)” value is reported as no more than -4.2.
For A40G G84C G86A G141A, the “polymerase ribozyme fitness (log ratio)” value was no more than -4.2.
With A40G G124U the “polymerase ribozyme fitness (log ratio)” value was -2.64.
For A40G U44A C87A C103U G126A A142C, the “polymerase ribozyme fitness (log ratio)” value was no more than -4.2.
In the case of A40G U44C G46U C85U C93A U127A U148C, the “polymerase ribozyme fitness (log ratio)” value is reported as no more than -4.2.
In the case of A40G U53A A60U A91U G117A, the “polymerase ribozyme fitness (log ratio)” value is reported as no more than -4.2.
With A40G U53A A73U C103G the “polymerase ribozyme fitness (log ratio)” value was no more than -4.2.
In the case of A40G U55A C85U A106C, the “polymerase ribozyme fitness (log ratio)” value is reported as no more than -4.2.
With A40G U55A G143C the “polymerase ribozyme fitness (log ratio)” value was no more than -4.2.
With A40G U56A C75A C93A G124A the “polymerase ribozyme fitness (log ratio)” value was no more than -4.2.
With A40G U56G G80C C87A the “polymerase ribozyme fitness (log ratio)” value was no more than -4.2.
In the case of A40G U77C C93A U109G C116U C131G, the “polymerase ribozyme fitness (log ratio)” value is reported as no more than -4.2.
In the case of A40G U134G, the “polymerase ribozyme fitness (log ratio)” value is reported as no more than -4.2.
For A40U A47G C79G C85U C114U, the “polymerase ribozyme fitness (log ratio)” value was no more than -4.2.
In the case of A40U A47U A49C G152U, the “polymerase ribozyme fitness (log ratio)” value is reported as no more than -4.2.
With A40U A49C G141A the “polymerase ribozyme fitness (log ratio)” value was no more than -4.2.
For A40U A52C U82A C95A U144G U146G, the “polymerase ribozyme fitness (log ratio)” value was no more than -4.2.
For A40U A52G C132G, the “polymerase ribozyme fitness (log ratio)” value was -3.47.
With A40U A60C the “polymerase ribozyme fitness (log ratio)” value was -1.31.
In the case of A40U A64C G84A G94C A97G G141C U145G C149A, the “polymerase ribozyme fitness (log ratio)” value is reported as no more than -4.2.
For A40U A89C C114U, the “polymerase ribozyme fitness (log ratio)” value was -2.95.
In the case of A40U A97U U101C A119U A121U G133A, the “polymerase ribozyme fitness (log ratio)” value is reported as no more than -4.2.
For A40U A106G C131U, the “polymerase ribozyme fitness (log ratio)” value was 1.54.
With A40U C51U C93U the “polymerase ribozyme fitness (log ratio)” value was -1.15.
In the case of A40U C54U G71U C95A U146C G152A, the “polymerase ribozyme fitness (log ratio)” value is reported as no more than -4.2.
For A40U C69A G143C, the “polymerase ribozyme fitness (log ratio)” value was -2.79.
With A40U C79U G81A G94U G133A the “polymerase ribozyme fitness (log ratio)” value was no more than -4.2.
For A40U C85A, the “polymerase ribozyme fitness (log ratio)” value was -1.44.
In the case of A40U C85G, the “polymerase ribozyme fitness (log ratio)” value is reported as -1.32.
For A40U C87U A89G, the “polymerase ribozyme fitness (log ratio)” value was -3.2.
In the case of A40U C87U C103G A115U C125U G133C, the “polymerase ribozyme fitness (log ratio)” value is reported as no more than -4.2.
